Source: the supplement of paper PMC4466236
The full ranking holds about 33,000 sequences; the median of “E-score (dimensionless, -0.5 to 0.5)” is about -0.058, and the highest 2% start at about 0.35. Some of the results follow.

Tested on: MvaT
Experiment: PBM 8-mer E-score (mean of HK and ME arrays) (E-score (dimensionless, -0.5 to 0.5)); higher = stronger relative binding preference; most listed sequences are background and not binding sites
Method in brief: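 Reported values are rank-based E-scores, taken as the mean of two universal arrays and parsed with a custom script. Each 8-mer score falls between -0.5 and 0.5. The arrays, ME and HK, were double-stranded 60-mers with a constant 25-mer primer region and a variable 35-mer region covering all 8-mers. They were probed, by an earlier protocol, with full-length P. aeruginosa MvaT carrying an N-terminal glutathione S-transferase fusion.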

Row | Sequence | PBM 8-mer E-score
1 | ATACATAC | 0.319
2 | ATAGCAGC | 0.0386
3 | AAATAAGT | 0.38
4 | GATCGAAC | -0.0964
5 | CAAGTTTA | 0.206
6 | GCGGTTAC | -0.192
7 | CCCAGTGC | -0.173
8 | CGAACGAA | -0.129
9 | AGCTCTCA | -0.247
10 | GTTTTGCA | 0.077
11 | AGTTTCTG | 0.074
12 | GAGCTTCA | -0.283
13 | ACGAATTG | 0.15
14 | GTTTAGTA | 0.261
15 | AAGCTCTG | -0.304
16 | CTAAGCAA | 0.0197
17 | AAGCTGGC | -0.254
18 | CAGGGAAA | 0.0169
19 | AATCCGAA | 0.0294
20 | GCATTTCA | 0.0481
21 | GATATGGA | 0.105
22 | AGGTTCGG | -0.0994
23 | AGGCGACA | -0.0475
24 | ATACATTA | 0.39
25 | ATCCGTGG | -0.305

Row | Sequence | PBM 8-mer E-score
26 | AATGTCCC | -0.0667
27 | AGACCGGC | -0.122
28 | GACTAGTC | -0.0899
29 | AGTATACC | 0.234
30 | CAGAACCC | -0.277
31 | CTGCCCTC | -0.248
32 | GTACCCAA | -0.0609
33 | CACATCTA | 0.085
34 | AGAACCGA | -0.0571
35 | GCGACCAC | -0.154
36 | CAAAGGTA | -0.113
37 | TGTTCCAA | 0.0797
38 | GGCACAAC | -0.19
39 | CGAGCTCC | -0.312
40 | GTTCCTAA | -0.0274
41 | CCAACTCA | 0.0702
42 | ACATTGAC | 0.169
43 | GCATGAGA | -0.173
44 | CCTCACAC | -0.14
45 | ACTACTGC | 0.0618
46 | CAAACGGG | -0.0101
47 | AGGGGTGA | -0.056
48 | ACTTTGGC | 0.0122
49 | ACTATCGA | 0.201
50 | ATAAAACG | 0.213

Row | Sequence | PBM 8-mer E-score
51 | CCGCAGCG | -0.26
52 | GAACCGTA | -0.0857
53 | GCGTAAAC | -0.0643
54 | CTCGCTGA | -0.159
55 | ATGAACGC | -0.14
56 | GTCGAAAC | 0.0163
57 | GGTTGTAC | 0.11
58 | CAAAAATA | 0.287
59 | CACTTCGA | -0.0103
60 | CTACAGGC | -0.224
61 | ATAGCGTC | -0.0949
62 | GCCACGCC | -0.196
63 | GATTCAGC | -0.0394
64 | CCAAATCC | -0.193
65 | ACATTTCC | 0.134
66 | GCGAGGGA | -0.251
67 | ACATGTTG | 0.11
68 | CTATCCGA | -0.0723
69 | CAGACTGG | -0.0253
70 | CCACATCC | -0.0308
71 | TCCTATAA | 0.161
72 | CAATAATG | 0.322
73 | TGAAGAAA | 0.214
74 | GAAGACAA | 0.0767
75 | GCCTAGAA | -0.0688

Row | Sequence | PBM 8-mer E-score
76 | AGTCGTGC | -0.0662
77 | AGGTCCCC | -0.37
78 | CAGGTGCG | -0.156
79 | ACTCAATC | 0.0599
80 | TAGTTAGA | 0.178
81 | AGTTGCAC | 0.0703
82 | ATGTTAGC | 0.069
83 | ACGTTCGC | -0.187
84 | AGAACGGC | -0.166
85 | CCATGAAC | -0.0875
86 | TATGGACA | 0.0866
87 | ACTGGCTC | -0.0916
88 | AATCAACG | -0.0388
89 | GGTACACA | -0.0929
90 | CACAGATG | -0.0775
91 | CTAGGTTC | -0.048
92 | CGTGCGGA | -0.146
93 | AATCCGTG | -0.11
94 | CAGGAGAA | -0.0765
95 | ACATTCTC | -0.00911
96 | ACCCAGAC | -0.0473
97 | ACACCGCG | -0.108
98 | CCTGTGAG | -0.0976
99 | CCTTATCA | 0.0843
100 | GAACCGGC | -0.208

Row | Sequence | PBM 8-mer E-score
101 | AATCGGCT | -0.105
102 | GCCCATCC | -0.103
103 | TACTAACA | 0.301
104 | CGGCGGCC | -0.272
105 | CATTGTGC | -0.088
106 | CAGGGCAG | -0.325
107 | AGTATTCG | 0.00317
108 | CAAAGTTC | 0.278
109 | CTTATTAA | 0.362
110 | AATTCTAA | 0.318
111 | CTTGTTGA | 0.0529
112 | ACATTGCT | -0.0355
113 | TGGGGAAA | 0.0333
114 | CGGTCCTA | -0.157
115 | CCTAAATC | -0.0235
116 | CATAAAAA | 0.179
117 | GGATTCAA | -0.000816
118 | CAGCATAA | 0.103
119 | AAACATCG | 0.105
120 | AACACCTT | 0.0796
121 | TAGCCACA | -0.044
122 | TCTTCCAA | -0.0144
123 | GACGAGGC | -0.217
124 | GAATACTA | 0.212
125 | ATAGGTTA | 0.0408

Row | Sequence | PBM 8-mer E-score
126 | GACGTTCC | -0.252
127 | AGTAGACT | 0.122
128 | GCATATTA | 0.278
129 | GCGTTTCC | -0.151
130 | AGTCGTAG | -0.223
131 | CAACGCTC | -0.268
132 | CAGAGGAG | -0.252
133 | CCTTGGCC | -0.19
134 | CCTTTCAC | -0.133
135 | ATTGGCCG | -0.0502
136 | TACAGGAA | 0.025
137 | CTACCTTA | 0.103
138 | ATGATTCG | 0.0176
139 | GAGTTCTA | 0.059
140 | AGCGTGAT | -2.7e-05
141 | GTACGTCA | -0.1
142 | CAGACGCC | -0.25
143 | AGGCGAAG | -0.0545
144 | CCGCCCAA | -0.00322
145 | ATTTGCAG | 0.119
146 | GCGTTCCA | -0.0496
147 | AGAACCAG | -0.201
148 | GGTTCAAA | -0.0223
149 | ATTAAGTG | 0.345
150 | CGCACCAG | -0.147

Row | Sequence | PBM 8-mer E-score
151 | CGTATCCC | -0.0821
152 | CAGGAATC | -0.2
153 | TATAATGA | 0.373
154 | ATTTCATC | 0.0474
155 | GCGCGGGA | -0.253
156 | GCGCCACC | -0.15
157 | ATCTGTGG | -0.104
158 | GCAGCAGA | -0.184
159 | GCGTTACA | 0.0339
160 | GAAAAAGA | 0.11
161 | GCAAAAAA | 0.209
162 | ATTCCGGA | 0.138
163 | GTTTTCTA | 0.0431
164 | ATAATCCG | 0.228
165 | GCCCTGTA | -0.11
166 | AGTACTTC | 0.178
167 | CTGAGGGC | -0.218
168 | ATAAATAT | 0.44
169 | CGGTATCC | -0.219
170 | ACCACACT | 0.00724
171 | TTACCCAA | 0.121
172 | CGTGTAAC | -0.0971
